In PMC4336329 (PLoS ONE, 2015):
Out of some 310,000 compounds screened, about 2,200 (0.71%) showed an effect of 50% or more. The effect is printed as a negative number. The list shows a part of the results.

Each compound was assayed against human ether-à-go-go-related gene (hERG) potassium channel (human, UniProt Q12809) (assay: primary screen, population patch clamp on CHO cells stably expressing hERG).
Chain of human ether-à-go-go-related gene (hERG) potassium channel (Q12809 whole entry, looked up): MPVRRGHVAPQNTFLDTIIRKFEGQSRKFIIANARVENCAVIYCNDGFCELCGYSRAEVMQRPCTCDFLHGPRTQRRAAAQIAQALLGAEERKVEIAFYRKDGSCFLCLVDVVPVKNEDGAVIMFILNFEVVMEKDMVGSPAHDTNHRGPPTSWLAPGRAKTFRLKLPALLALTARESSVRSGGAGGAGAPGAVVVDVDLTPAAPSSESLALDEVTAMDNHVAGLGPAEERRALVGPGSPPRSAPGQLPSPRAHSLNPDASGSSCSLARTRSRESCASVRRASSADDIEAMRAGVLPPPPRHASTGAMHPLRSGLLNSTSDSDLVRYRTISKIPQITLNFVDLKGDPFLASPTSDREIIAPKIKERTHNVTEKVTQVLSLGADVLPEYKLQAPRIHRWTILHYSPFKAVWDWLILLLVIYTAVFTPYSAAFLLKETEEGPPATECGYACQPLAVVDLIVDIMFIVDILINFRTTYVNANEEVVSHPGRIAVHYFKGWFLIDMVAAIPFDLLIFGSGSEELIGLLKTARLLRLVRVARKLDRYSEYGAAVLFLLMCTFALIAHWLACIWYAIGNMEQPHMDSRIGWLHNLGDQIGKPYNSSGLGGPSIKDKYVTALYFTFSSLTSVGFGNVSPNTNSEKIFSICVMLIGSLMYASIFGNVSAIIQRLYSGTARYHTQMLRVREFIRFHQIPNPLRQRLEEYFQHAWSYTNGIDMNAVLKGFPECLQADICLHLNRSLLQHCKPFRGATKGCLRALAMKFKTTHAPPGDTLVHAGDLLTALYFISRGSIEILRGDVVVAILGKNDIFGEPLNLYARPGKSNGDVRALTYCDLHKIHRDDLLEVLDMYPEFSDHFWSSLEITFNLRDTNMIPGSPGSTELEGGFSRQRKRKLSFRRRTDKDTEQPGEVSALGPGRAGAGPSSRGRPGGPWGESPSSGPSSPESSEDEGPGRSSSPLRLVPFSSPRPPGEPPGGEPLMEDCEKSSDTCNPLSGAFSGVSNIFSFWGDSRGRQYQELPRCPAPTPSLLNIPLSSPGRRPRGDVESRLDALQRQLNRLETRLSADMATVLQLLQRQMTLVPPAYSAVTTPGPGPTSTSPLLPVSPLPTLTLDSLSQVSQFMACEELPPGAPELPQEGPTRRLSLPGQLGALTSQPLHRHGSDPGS
In the case of `CCOC(=O)CC1COc2ccccc2N1C(=O)c1ccc(F)cc1` (centres unmarked), the “hERG current change (%, negative = inhibition) at 1uM” value is reported as 0.534%. `CC1(c2ccccc2)NC(=O)N(CC(=O)Nc2nc(-c3ccccn3)cs2)C1=O` (centres unmarked) was tested, and the “hERG current change (%, negative = inhibition) at 1uM” value was 4.5%. For `O=C(CN1C(=O)CSC1=O)Nc1ccccc1N1CCOCC1`, the “hERG current change (%, negative = inhibition) at 1uM” value was 16.9%. In the case of `CC(C)c1csc(CN2CCC(CCC(=O)NCC3CCCO3)CC2)n1` (centres unmarked), the “hERG current change (%, negative = inhibition) at 1uM” value is reported as 9.97%. `Cc1ccc(CSc2ccc(C(=O)N3CCOCC3)cc2[N+](=O)[O-])cc1` was tested, and the “hERG current change (%, negative = inhibition) at 1uM” value was 9.61%. For `CN(C1CCCC1)C1CCN(C(=O)CNC(=O)/C=C/c2ccccc2)CC1`, the “hERG current change (%, negative = inhibition) at 1uM” value was -14.5%. `Cc1ccc(NC(=O)CSc2ncc(-c3ccccc3)n2C(=O)c2ccccc2)cc1` was tested, and the “hERG current change (%, negative = inhibition) at 1uM” value was 7.02%. In the case of `COc1ccc(N=Cc2oc3ccc4ccccc4c3c2O)cc1`, the “hERG current change (%, negative = inhibition) at 1uM” value is reported as 15.8%. For `COc1ccc(-c2nnc(SCC(=O)c3ccco3)n2-c2ccccc2)cc1`, the “hERG current change (%, negative = inhibition) at 1uM” value was 2.74%. With `Cc1c(NC(=S)NC(=O)Cc2ccccc2)cccc1C(=O)O` the “hERG current change (%, negative = inhibition) at 1uM” value was -5.67%. In the case of `CCOC(=O)N1CCN(C(=O)CNC(=O)c2ccc(Br)o2)CC1`, the “hERG current change (%, negative = inhibition) at 1uM” value is reported as 12.3%. With `Cc1ccc(NC(=O)c2ccc(NCC3CCCO3)c([N+](=O)[O-])c2)cc1Cl` (centres unmarked) the “hERG current change (%, negative = inhibition) at 1uM” value was 1.96%. `COc1ccc(CCN(C)C(=O)c2cc(-c3ccccc3)nc3ccccc23)cc1OC` was tested, and the “hERG current change (%, negative = inhibition) at 1uM” value was 0.166%. With `COc1cccc(CNC(=O)CN2C(=O)COc3ccc(S(=O)(=O)N4CCCC4)cc32)c1` the “hERG current change (%, negative = inhibition) at 1uM” value was 8.65%. For `Cc1cc(Cl)ccc1NC(=O)CSc1nnc(Cc2cccs2)n1Cc1ccco1`, the “hERG current change (%, negative = inhibition) at 1uM” value was -6.89%. `CCCN(CC(=O)Nc1ccccc1C)C(=O)COc1ccc2c(c1)CCC2` was tested, and the “hERG current change (%, negative = inhibition) at 1uM” value was 7.65%. `CCCCCc1cc(=O)oc2c(C(CCN3CCCC(C)C3)c3ccc(OC)cc3)c(OC)cc(OC)c12` (centres unmarked) was tested, and the “hERG current change (%, negative = inhibition) at 1uM” value was 14.7%. With `O=C(NCc1ccco1)c1scc2c1OCCO2` the “hERG current change (%, negative = inhibition) at 1uM” value was 6.64%. With `COc1cc(OC)cc(C(C)=O)c1` the “hERG current change (%, negative = inhibition) at 1uM” value was 14.7%. `Cc1ccc(-n2cccc2C(=S)N=P(N(C)C)(N(C)C)N(C)C)cc1` was tested, and the “hERG current change (%, negative = inhibition) at 1uM” value was 7.02%. `CCOc1ccccc1Oc1c(C)oc2cc(OC(=O)N3CCOCC3)ccc2c1=O` was tested, and the “hERG current change (%, negative = inhibition) at 1uM” value was 8.54%. For `CC1CC(C)CN(C(=O)CCCn2c(=O)c3cccn3c3cccnc32)C1` (centres unmarked), the “hERG current change (%, negative = inhibition) at 1uM” value was 4.63%. With `COc1ccc2c(c1OC)C(=O)N1c3cccc(Cl)c3C(=O)OC21` (centres unmarked) the “hERG current change (%, negative = inhibition) at 1uM” value was -0.369%. For `Cc1c(CNCCC2=CCCCC2)c(C(=O)O)c(C)n1Cc1ccccc1`, the “hERG current change (%, negative = inhibition) at 1uM” value was -0.881%. In the case of `CCOC(=O)c1ccc(N2C(=O)CC(N3CCC(Nc4ccc(F)cc4)CC3)C2=O)cc1` (centres unmarked), the “hERG current change (%, negative = inhibition) at 1uM” value is reported as 8.25%. For `COc1ccc(CN(C)CC2CCCN(CCc3ccccc3C)C2)cc1O` (centres unmarked), the “hERG current change (%, negative = inhibition) at 1uM” value was 11.6%. In the case of `O=C(COc1ccc(Cl)cc1Cl)N1CCCC1`, the “hERG current change (%, negative = inhibition) at 1uM” value is reported as 10.7%. For `COc1cccc(NC(=O)CN(C)C(=O)COc2ccccc2Cc2ccccc2)c1`, the “hERG current change (%, negative = inhibition) at 1uM” value was 4.22%. For `CCOc1ccccc1N1CC(C(=O)Nc2ccccc2N2CCCC2)CC1=O` (centres unmarked), the “hERG current change (%, negative = inhibition) at 1uM” value was 20.7%. `COCC(=O)Nc1ccc(N2CCCC2)c(S(=O)(=O)Nc2ccccc2OC)c1` was tested, and the “hERG current change (%, negative = inhibition) at 1uM” value was 4.22%. With `CCn1c(=NC(=O)c2cccc(N3C(=O)CCC3=O)c2)sc2c(OC)ccc(OC)c21` the “hERG current change (%, negative = inhibition) at 1uM” value was 11.5%. For `Cl.Cn1c(=N)n(CC(O)c2ccccc2)c2ccccc21` (centres unmarked), the “hERG current change (%, negative = inhibition) at 1uM” value was -11.5%. In the case of `Cc1cccc(N2CCN(S(=O)(=O)c3c(C)nc4scc(C)n4c3=O)CC2)c1C`, the “hERG current change (%, negative = inhibition) at 1uM” value is reported as 9.59%. `CCn1nnnc1Oc1ccc(Cl)cc1` was tested, and the “hERG current change (%, negative = inhibition) at 1uM” value was 7.27%. With `Cc1ccc2c(CSc3nnc(C4CC4)n3N)cc(=O)oc2c1C` the “hERG current change (%, negative = inhibition) at 1uM” value was 6.52%. With `CCOc1ccc(OCCC(=O)N2CCc3cc(OC)c(OC)cc3C2)cc1` the “hERG current change (%, negative = inhibition) at 1uM” value was 1.01%. For `CC(C)(C)NC(=O)CSc1nc2[nH]ncc2c(=O)[nH]1`, the “hERG current change (%, negative = inhibition) at 1uM” value was 12.1%. With `Cc1ccc(-c2nn(-c3ccccc3)cc2C(=O)NCC(c2cccs2)N2CCOCC2)cc1` (centres unmarked) the “hERG current change (%, negative = inhibition) at 1uM” value was 11%. `O=C(/C=C/c1cccc([N+](=O)[O-])c1)N1CCN(c2ccc(F)cc2)CC1` was tested, and the “hERG current change (%, negative = inhibition) at 1uM” value was -20%. `CCCCn1c(N)c(N(CC)C(=O)C2=COCCO2)c(=O)[nH]c1=O` was tested, and the “hERG current change (%, negative = inhibition) at 1uM” value was 3.9%. For `COc1cc(C(=O)Nc2ccc(C)c(S(=O)(=O)N(C)C)c2)ccc1OCC(=O)N1CCOCC1`, the “hERG current change (%, negative = inhibition) at 1uM” value was 11.8%. With `Cc1ccc(C(=O)Nc2ncc(C)s2)o1` the “hERG current change (%, negative = inhibition) at 1uM” value was 3.8%. For `CCOc1ncccc1C(=O)NNC(=O)c1cccc(S(=O)(=O)Nc2ccc(OC)cc2)c1`, the “hERG current change (%, negative = inhibition) at 1uM” value was 10.9%. In the case of `Cc1cc(C)cc(NC(=S)N2CCN(Cc3ccccc3)CC2)c1`, the “hERG current change (%, negative = inhibition) at 1uM” value is reported as 12.2%.
